Molecules are shown by their SMILES. Where only a bound is given, the exact number is not on record here.

The subject of this experiment is P. aeruginosa strains DSMZ 22644 and ATCC 39324. The experiment in a line: MIC determinations (Resazurin, M9 media with oleic acid as carbon source). To be noted: Pseudomonas aeruginosa, ATCC39324|DSMZ22644, read-out: MIC (no inhibitory effect on growth up to highest concentration). In general terms: Alamar Blue is a resazurin reagent that responds to reducing activity.

In the case of `CC(C)(C)C(O)(CCc1ccc(Cl)cc1)Cn1cncn1` (stereo not shown) [tebuconazole], the MIC is over 128 µg/mL.
